Source: PubChem BioAssay (NCI)
Values joined by “and” are separate entries in the source; they are usually repeats but may differ in a detail not shown here. Identical values can stand only once.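 Results reflect a 48-hour exposure of cells in 96-well plates to compound at five concentrations. GI50 is the concentration that inhibits growth by half. At the TGI there is no net growth.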

test system: NCI-H322M lung; assay: NCI tumour cell line growth inhibition, 48 h

First: CN(C)CCCC(=O)Nc1ccc(Cn2nnc3c2C(=O)c2nnn(Cc4ccc(NC(=O)CCCN(C)C)cc4)c2C3=O)cc1
Second: COc1cccc2c(Nc3ccc(C(=O)NCCN(C)C)cc3)cc(-c3ccccc3)nc12
The GI50 of the first is 4.1-fold lower: 5.07 µM for the first, 20.8 µM for the second.

Compared with O=C1C(=O)c2c(nc3ncccn23)-c2ccccc21, Clc1ccc(-c2cn(-c3ccccc3)c(-c3ccccc3)n2)c(Cl)c1 is 9.9-fold higher in GI50: 0.18 µM for the first, 1.78 µM for the second.

Going from COc1cccc(C2C(C#N)=C(N)Oc3cc(OC)ccc32)c1 (stereo not given) to C=C1C(=O)O[C@H]2[C@H]1CC/C(COC(=O)C(=O)c1cn(C)c3ccc(OC)cc13)=C\CC[C@@]1(C)O[C@@H]21, the GI50 rises from 0.0645 µM to 7.39 µM (110-fold).

Compound C=C1CO[C@@H]2C[C@@H]1CCC1(C)OC1CC/C(C)=C/CC[C@@]2(C)O (stereo not given in full) has a GI50 greater than 100 µM.

Going from CN(C)CCCC(=O)Nc1ccc(Cn2nnc3c2C(=O)c2nnn(Cc4ccc(NC(=O)CCCN(C)C)cc4)c2C3=O)cc1 to COc1cccc2c(Nc3ccc(C(=O)NCCN(C)C)cc3)cc(-c3ccccc3)nc12, the TGI rises from 17.1 µM to 48.5 µM (2.8-fold).

Compared with CCc1nc(N)nc(N)c1-c1ccc(Cl)c(N=NN(C)C)c1, Clc1ccc(-c2cn(-c3ccccc3)c(-c3ccccc3)n2)c(Cl)c1 is lower in TGI: greater than 100 µM for the first, 14.9 µM for the second.

O=C(/C=C/c1ccc(Cl)cc1)c1ccncc1 and C/C(=N\n1c(Cc2ccccc2)n[nH]c1=O)c1ccc([N+](=O)[O-])cc1 cannot be ordered by TGI: greater than 100 µM for the first, greater than 100 µM for the second.

Going from CC(C)(CN1CCCCC1)C(=O)/C=C/c1c(Cl)cccc1Cl to CC(C)(C)OC(=O)N1C/C=C\C(=O)C2(OCCO2)c2ccccc21, the TGI rises from 5.03 µM to greater than 100 µM.

First: O=C1C(=O)c2c(nc3ncccn23)-c2ccccc21
Second: Cc1nc2ccccc2cc1C[N+]12CN3CN(CN(C3)C1)C2
The TGI of the first is 150-fold lower: 0.36 µM for the first, 53.8 µM for the second.

CCOC(=O)/C=C1/Nc2cc(F)c(F)cc2NC1=O and CC(C)(C)c1cc(C2NC(=O)NC2=O)cc(C(C)(C)C)c1O (stereo not given) cannot be ordered by TGI: greater than 100 µM for the first, greater than 100 µM for the second.

Nc1ccc(-c2nc3cc(F)ccc3s2)cc1 and COc1cccc(C2C(C#N)=C(N)Oc3cc(OC)ccc32)c1 (stereo not given) cannot be ordered by TGI: greater than 100 µM for the first, greater than 100 µM for the second.

Compared with COc1cc(-c2coc3c(OC)c(OC4OC(COC5OC(C)C(O)C(O)C5O)C(O)C(O)C4O)c(OC)c(O)c3c2=O)cc(C)c1O (stereo not given), CC(=O)OC1C(O)C(C)OC(OC(=O)C2CCC3C(C2)OC2(CC(OC(=O)/C=C/c4ccccc4)C(C)CO2)C32CO2)C1OC1OC(C)C(O)C(O)C1O (stereo not given) is 110-fold lower in TGI: 30.4 µM for the first, 0.281 µM for the second.

Going from C=C1CO[C@@H]2C[C@@H]1CCC1(C)OC1CC/C(C)=C/CC[C@@]2(C)O (stereo not given in full) to C=C1C(=O)O[C@H]2[C@H]1CC/C(COC(=O)C(=O)c1cn(C)c3ccc(OC)cc13)=C\CC[C@@]1(C)O[C@@H]21, the TGI falls from greater than 100 µM to 13.1 µM.

CSc1nc(=O)c(C#N)c(-c2ccccc2)n1C1OC(COC(C)=O)C(OC(C)=O)C(OC(C)=O)C1OC(C)=O (stereo not given) and COc1cc(C2c3cc4c(cc3OC(N3CCOCC3)C2C)OCO4)cc(OC)c1OC(C)=O (stereo not given) cannot be ordered by TGI: greater than 100 µM for the first, greater than 100 µM for the second.

C=C1C(=O)O[C@H]2[C@H]1CC(=O)/C(C)=C\CC[C@@]1(C)O[C@@H]21 showed a GI50 of 7.65 µg/mL.

C=C1C(=O)O[C@H]2[C@H]1CC(=O)/C(C)=C\CC[C@@]1(C)O[C@@H]21 gave a TGI of 14.9 µg/mL.

In the case of O=[N+]([O-])c1ccc(O)c2ncccc12, the TGI is reported as > 100 µM and 60.7 µM.
